Hit rate of the full screen: of about 310,000 compounds, about 2,200 (0.71%) showed an effect of 50% or more. Effects have a minus sign here. Some of the results follow.
target: human ether-à-go-go-related gene (hERG) potassium channel (human, UniProt Q12809); assay: primary screen, population patch clamp on CHO cells stably expressing hERG
Sequence (Q12809 whole entry, looked up): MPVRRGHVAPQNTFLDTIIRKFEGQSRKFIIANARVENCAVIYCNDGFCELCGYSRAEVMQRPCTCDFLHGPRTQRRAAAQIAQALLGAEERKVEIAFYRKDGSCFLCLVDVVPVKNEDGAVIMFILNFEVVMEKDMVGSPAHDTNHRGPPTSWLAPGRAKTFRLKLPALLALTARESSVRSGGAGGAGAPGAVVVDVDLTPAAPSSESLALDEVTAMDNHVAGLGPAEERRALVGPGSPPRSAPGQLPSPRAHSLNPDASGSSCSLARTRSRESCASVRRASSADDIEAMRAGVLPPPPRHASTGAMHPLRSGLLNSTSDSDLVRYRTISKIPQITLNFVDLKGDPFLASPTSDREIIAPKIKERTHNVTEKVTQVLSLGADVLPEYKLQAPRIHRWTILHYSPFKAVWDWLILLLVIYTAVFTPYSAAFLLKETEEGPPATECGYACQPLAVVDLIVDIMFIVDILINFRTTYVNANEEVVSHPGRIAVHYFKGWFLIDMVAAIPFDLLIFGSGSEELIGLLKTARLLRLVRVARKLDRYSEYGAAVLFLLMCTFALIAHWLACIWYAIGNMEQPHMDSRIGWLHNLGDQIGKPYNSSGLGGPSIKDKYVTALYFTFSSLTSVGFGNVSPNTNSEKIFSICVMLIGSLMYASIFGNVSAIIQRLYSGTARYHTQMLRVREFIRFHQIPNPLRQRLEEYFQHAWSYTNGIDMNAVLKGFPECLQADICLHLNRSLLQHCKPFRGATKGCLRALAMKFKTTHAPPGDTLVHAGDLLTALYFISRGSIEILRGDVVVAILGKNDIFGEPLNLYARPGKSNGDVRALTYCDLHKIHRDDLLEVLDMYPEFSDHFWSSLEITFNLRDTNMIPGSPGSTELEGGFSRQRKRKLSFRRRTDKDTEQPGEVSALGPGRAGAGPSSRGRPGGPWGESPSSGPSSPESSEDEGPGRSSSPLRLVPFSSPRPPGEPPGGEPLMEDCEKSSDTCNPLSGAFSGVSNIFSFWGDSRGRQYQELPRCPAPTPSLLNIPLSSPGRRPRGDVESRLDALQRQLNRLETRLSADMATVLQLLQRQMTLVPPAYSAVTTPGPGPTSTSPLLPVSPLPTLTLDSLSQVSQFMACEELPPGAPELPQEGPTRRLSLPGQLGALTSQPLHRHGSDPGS

Structure (SMILES)	hERG current change (%, negative = inhibition) at 1uM
CSc1ccc(S(=O)(=O)NC2CC3CCC2C3)cc1 (stereo not drawn)	18.2%
CC(C)(C)n1c(O)c2ccc(C(=O)N=NC(=O)c3ccccc3)cc2c1O	7.88%
O=C(O)Cn1nnc2ccccc21	-0.568%
COc1c2ccoc2c(OC(C)=O)c2oc(C)cc(=O)c12	25%
CN1C(=O)C(C)(C)c2cc(S(=O)(=O)N3CCC(C(=O)NCc4ccc(Cl)cc4)CC3)ccc21	7.44%
Cc1c(CC(=O)O)c(=O)oc2c(C)c(OCc3ccc(F)cc3F)ccc12	18.4%
CCCc1nnc(NC(=O)CCC(=O)N2CCN(Cc3ccc(Cl)cc3)CC2)s1	5.25%
CCn1c(=O)n(CC)c2cc(N3CCCC3)c(NC(=O)c3cc(Cl)ccc3OC)cc21	11.6%
CCC(C)NC(=O)C1(O)c2ccccc2NC(=O)N1c1ccc(C)c(C)c1 (stereo not drawn)	16.7%
CCCCc1nnc(SCC(=O)Nc2nccs2)n1C	11%
O=P(/C(=N/O)N1CCOCC1)(N1CCOCC1)N1CCOCC1	11%
O=C(NNC(=O)c1ccc2nc[nH]c2c1)c1ccccc1	13.2%
Br.CCn1c(-c2cc(OC)ccc2OC)csc1=Nc1c(C)n(C)n(-c2ccccc2)c1=O	15.2%
O=C(NNc1nc2ccccc2s1)Nc1ccc(F)cc1	2.13%
CN(Cc1c(F)cccc1Cl)C(=O)C1CC(=O)N(CCc2ccccc2)C1 (stereo not drawn)	-4.62%
Cc1ccnc(NC(=O)CSc2cc(=O)n(C)c3ccccc23)c1	18.2%
COc1ccc(S(=O)(=O)N2CCOCC2)cc1NC(=O)CN1C(=O)NC2(CCCCC2C)C1=O (stereo not drawn)	1.41%
COCCN(C(=O)CCC(=O)Nc1ccccn1)C(C(=O)NCCC(C)C)c1ccc(F)cc1 (stereo not drawn)	8.74%
CC(=O)Nc1sc2c(c1C(c1ccccn1)N1CCN(C)CC1)CCCC2 (stereo not drawn)	1.7%
COc1ccc(Cn2c(=O)cc(N)n(-c3ccccc3C)c2=O)cc1	16.1%
Cc1ccc(C)c(NC(=O)Cn2nc(C)c3ccccc3c2=O)c1	5.33%
C=C(C)CSc1[nH]c(=O)cc(C)c1C#N	7.6%

Structure (SMILES)	hERG current change (%, negative = inhibition) at 1uM
Cc1ccc(C2=Nc3ccccc3N(C(=O)c3ccccc3)C(C)C2)cc1 (stereo not drawn)	14.9%
O=C(Nc1ccccc1)C1CC(=O)n2ncnc2N1 (stereo not drawn)	7.18%
O=c1ccc(-c2ccc(S(=O)(=O)Nc3ccccc3)o2)n[nH]1	12%
O=C(O)c1ccc2c(c1)C(=O)N(NC(=O)c1ccccc1)C2=O	11.4%
COc1ccccc1NS(=O)(=O)c1ccc2oc(SC3CCOC3=O)nc2c1 (stereo not drawn)	9.89%
Cc1cc(CSc2nc(C)cc(=O)[nH]2)c2ncccc2c1	6.69%
CCOc1ccccc1NC(=O)NC(C)c1ccc2c(c1)OCO2 (stereo not drawn)	1.75%
O=C(C1CCC(CNc2c(N3CCCC3)c(=O)c2=O)CC1)N1CCc2ccccc21 (stereo not drawn)	12.2%
COc1ccccc1Nc1nc(C)cs1	0.343%
CCN(C(=O)CSc1nnnn1C)c1c(N)n(Cc2ccccc2)c(=O)[nH]c1=O	-0.914%
C#CC[N+]1(CC#Cc2cccc3ccccc23)CCOCC1.[Br-]	8.42%
CC1=NN(c2ccccc2)C(=O)/C1=C/C=C/C=C/N(C)C	13.5%
O=C(CCn1nc(-c2ccc(Cl)cc2)ccc1=O)NCc1ccccn1	-3.96%
CCOc1ccc(CCNC(=O)CN(C)S(=O)(=O)c2cccc3nsnc23)cc1OCC	9.05%
Cc1cc(NC(=O)CSc2ccc3ccccc3c2)no1	-26.4%
CC(=O)c1ccc(NC(=O)CSc2nnc(-c3ccco3)c(-c3ccco3)n2)cc1	2.75%
Cc1ccccc1C(=O)Nc1nnc(-c2cccnc2)o1	14.3%
COC(=O)C1=C(CCc2ccccc2)NC(=O)NC1c1ccc(Br)cc1 (stereo not drawn)	-8.25%
Cc1ccc2c(c1)c(C1=c3ccccc3=NC1=O)c(O)n2C	18.7%
COc1ccc(C(CNC(=O)c2cc(C)oc2C)N2CCOCC2)cc1 (stereo not drawn)	6.58%
O=C(NC1C2CC3CC(C2)CC1C3)C1CCCCC1 (stereo not drawn)	13.9%
CNC(CC(C)C)C(=O)NC1C(=O)NC(CC(N)=O)C(=O)NC2C(=O)NC3C(=O)NC(C(=O)NC(C(=O)O)c4cc(O)cc(O)c4-c4cc3ccc4O)C(O)c3ccc(c(Cl)c3)Oc3cc2cc(c3OC2OC(CO)C(O)C(O)C2OC2CC(C)(N)C(O)C(C)O2)Oc2ccc(cc2Cl)C1O.Cl.O (stereo not drawn)	4.85%

Structure (SMILES)	hERG current change (%, negative = inhibition) at 1uM
Cc1cc(-n2ccc(=O)[nH]c2=O)nc(-c2ccccc2)n1	10.2%
O=S(=O)(NCc1ccc(Cl)cc1Cl)c1cccs1	8.5%
COc1cc(NC(=O)c2ccc(Br)o2)ccc1NC(=O)C(C)C	-9.33%
Cc1ccc(OCC(=O)N2CCN(Cc3cccnc3)CC2)cc1.O=C(O)C(=O)O	0.195%
Cc1ccc(Cl)c(N/C=C/C(=O)c2ccccc2)c1	14.5%
CC1=C(C(=O)OCc2ccccc2)C(c2ccccc2OS(=O)(=O)c2ccccc2[N+](=O)[O-])NC(=O)N1CCCC(=O)O (stereo not drawn)	11.1%
COc1ccccc1C(=O)Nc1cccc(SC)c1	-0.827%
CCCCN(C(=O)CC1CCCC1)c1c(N)n(CCCC)c(=O)[nH]c1=O	2%
COc1ccc(-n2nc(C(=O)N(C)C)nc2-c2ccccc2)cc1	10.5%
Cc1ccc(C(=O)NC(=S)Nc2ccc(N3CCN(C(=O)c4ccco4)CC3)cc2)cc1	17.7%
CN1CC(=O)NC1=NC(=O)c1ccc(Cl)c(S(=O)(=O)N2CCCCCC2)c1	6.07%
COc1cc(/C=C2/NC(=O)N(Cc3ccccc3F)C2=O)ccc1O	6.87%
CN(C)Cc1c(O)ccc2c(=O)c(-c3ccccc3)c(C(F)(F)F)oc12	11%
COc1ccc(N2C(=NC(=O)C(C)Oc3ccccc3)SC3CS(=O)(=O)CC32)cc1 (stereo not drawn)	0.401%
O=[N+]([O-])c1cc(C(F)(F)F)ccc1Sc1ccc2ccccc2n1	7.15%
Cc1cc(C(=O)O/N=C(\N)c2ccc(C(C)(C)C)cc2)no1	15.6%
CCCCCCn1c(SCC(=O)OC)nc2c1c(=O)[nH]c(=O)n2C	-45.2%
CCN(CC)C(=O)Cn1cc(C(=O)C(=O)N2CCN(c3ccc(OC)cc3)CC2)c2ccccc21	23.7%
CC(=O)CCc1ccccc1	11.8%
O=c1[nH]cnc2cc(-c3ccc(Br)cc3)sc12	16.6%
CCCOc1ccc(Cn2c(=O)oc3ccc(C)cc32)cc1OC	10.2%
COc1ccc(CN2C(=O)CSCC2=O)cc1OC	8.91%

Structure (SMILES)	hERG current change (%, negative = inhibition) at 1uM
Cc1nc2ccccn2c1C(=O)NNC(=O)Nc1ccccc1	12.2%
CCc1nnc(NC(=O)CSc2nc(C)c3c(c2C#N)CCCC3)s1	3.44%
C/C(CC(=O)NCc1ccccc1)=N\NC(=O)c1cnccn1	1.56%
CN1CCC(=O)N(CCN=[N+]=[N-])CC1	13.6%
O=C(COc1coc(CN2CCN(c3ccc(F)cc3)CC2)cc1=O)NCC1CCCO1 (stereo not drawn)	8.82%
CCN1CCN(C(=O)Cn2nc(-c3ccc(Cl)cc3)ccc2=O)CC1	10.4%
CN(CC(=O)Nc1ccccc1C(=O)NC1CC1)Cc1ccc(Cl)s1	-3.75%
COc1cc(C=O)c(Cl)cc1OCC(N)=O	5.81%
COc1ccc(S(=O)(=O)N2CCC(C(=O)N3CCCC3)CC2)cc1	-0.331%
CCc1cccc2c(C=C(C#N)C#N)cn(CC(=O)N3CCCCCC3)c12	9.65%
Cc1[nH]c(=O)[nH]c(=O)c1S(=O)(=O)N1CCCC(C(=O)NCCc2ccccc2)C1 (stereo not drawn)	14%
CCC(CC)C(=O)N1N=C(c2ccc(NS(C)(=O)=O)cc2)CC1c1ccccc1 (stereo not drawn)	-1.15%
O=C(O)c1nn(Cc2csc(-c3ccccc3)n2)c(=O)c2ccccc12	6.44%
O=C(NC1CC1)c1ccc(NS(=O)(=O)c2ccc(F)cc2)cc1	-29.2%
c1ccc(COc2cccc(CNn3cnnc3)c2)cc1	11.6%
COc1ccc(OC)c(CCNC(=O)C(C)n2nc(C)c3c(C)n(-c4ccccc4)nc3c2=O)c1 (stereo not drawn)	9.86%
CC1(C)CC(=O)C2=C(C1)OC(N)=C(C#N)C2c1ccc(OC(=O)N2CCOCC2)cc1 (stereo not drawn)	-2.96%
CN1C(=O)C(O)(C2CCCCCC2=O)c2ccccc21 (stereo not drawn)	4.63%
c1ccc(CC2CCN(C3=Nc4cccc5cccc3c45)CC2)cc1	-27.6%
N#CCC(=O)c1ccccc1Oc1ccc(Cl)cc1	16.5%
O=C(O)COc1ccccc1/C=N/NC(=O)c1cc(-c2ccccc2)nc2ccccc12	12.5%

Source: publication PMC4336329 (PLoS ONE, 2015)
